# Test results as given in PubChem BioAssay AID504832 (National Center for Advancing Translational Sciences (NCATS), 2011).
# Hit rate of the full screen: of about 310,000 compounds, about 18,000 (5.8%) were called active. Inconclusive results, whose numbers are uncertain, are shown with a selection of clear calls. Calls follow the shape of the dose curve; as a rule, active = well fitted inhibition curve with a large enough effect; inconclusive = small, poorly fitted or top-dose-only effect, or another doubt; inactive = no such curve, though single readings can be large or run the other way. No potency is given beside an inconclusive call; the fits are too rough.
# Test: Primary qHTS for delayed death inhibitors of the malarial parasite plastid, 48 hour incubation
# Details: P. falciparum luciferase growth in erythrocytes; series mostly up to 28.7 µM
# Method in brief: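 Parasite viability was followed by luminescence of a genomically integrated firefly luciferase. Cultures held 0.1% parasitemia at 2% hematocrit (final), incubated under 5% CO2 at 37 C.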
# Potency is read from the fitted curve at half-maximal effect; tags tell the direction and shape of the fitted curve.
row,SMILES,Potency
1,CCN(CC)CCN1C(=O)C2C(C(=O)Nc3ccc(Br)cc3)C3C=CC2(O3)C1C(=O)NC1CCCCC1 (centres undefined),"inconclusive [inhibitor, partial curve]"
2,O=C(NNc1ccc([N+](=O)[O-])cc1)C1CC2CCCC(C1)C2=O (centres undefined),"inconclusive [inhibitor, full curve]"
3,Cc1ccc(NC(=O)Cn2cnc3ccccc32)cc1C,inactive
4,CC(Oc1ccc(F)cc1)C(=O)Nc1cc(C(F)(F)F)ccc1-n1cncn1 (centres undefined),active: 0.586 µM
5,O=C(O)CCCCCNC(=O)/C=C/c1ccco1,inactive
6,Cc1cccc(N(CC(=O)NC(C)(C)C)C(=O)CNC(=O)c2cccs2)c1,"inconclusive [inhibitor, single point]"
7,COC(=O)/C=C1/SC(=NC(=O)c2ccc(OC)cc2)NC1=O,"inconclusive [inhibitor, partial curve, poor fit]"
8,CC(C)Oc1ccc2c(c1)OC(c1ccccc1)(C(F)(F)F)NC2=O (centres undefined),active: 0.828 µM
9,CC1CCCCC1n1c(=S)[nH]c2ccccc2c1=O (centres undefined),"inconclusive [inhibitor, partial curve]"
10,CCNC(=O)c1ccccc1NC(=O)c1cccc(S(=O)(=O)N2CCC(C)CC2)c1,"inconclusive [inhibitor, single point]"
11,Cc1nc2ncccn2c1-c1csc(Nc2ccc(O)cc2)n1,"inconclusive [inhibitor, single point]"
12,CCC1(c2ccccc2)NC(=O)N(CC(=O)Nc2ccc3c(C)cc(=O)oc3c2)C1=O (centres undefined),"inconclusive [inhibitor, partial curve, poor fit]"
13,Cc1ccc(C(=O)NC(=S)Nc2cccc3nsnc23)cc1,"inconclusive [inhibitor, full curve, poor fit]"
14,C=CCNC(=O)c1c(CSc2ccc(F)cc2)noc1C(=O)NCCC,inactive
15,Cc1ccc(Cn2c(SC(C)C(N)=O)nc3ccccc3c2=O)cc1 (centres undefined),"inconclusive [inhibitor, partial curve, poor fit]"
16,S=C(Nc1ccccc1)Nc1cccc(Cl)c1Cl,inactive
17,Cc1ccc(/C=C/S(=O)(=O)NCC(=O)OCC(=O)Nc2c(F)cccc2F)cc1,"inconclusive [inhibitor, single point]"
18,Cc1snc(SCC(=O)c2ccc([N+](=O)[O-])cc2)c1C#N,"inconclusive [inhibitor, full curve, poor fit]"
19,O=C(CCCC1=NS(=O)(=O)c2ccccc2N1)N1CCN(c2ccccc2)CC1,inactive
20,COC(=O)C(C)n1cnc2c(nnn2-c2ccc(OC)cc2)c1=O (centres undefined),inactive
21,CCOc1ccc(C(=O)NC(=S)Nc2ccccc2OC)cc1[N+](=O)[O-],"inconclusive [inhibitor, single point]"
22,Cc1ccc(C2CC(c3ccccc3OC(F)F)Nc3ncnn32)cc1 (centres undefined),active: 11.7 µM

row,SMILES,Potency
1,O=C(Nc1ccc(Oc2ccc(NC(=O)c3ccco3)c(NC(=O)c3ccco3)c2)cc1)c1ccco1,"inconclusive [inhibitor, single point]"
2,CC1(C)NC(=O)N(CC(=O)OCC(=O)Nc2sccc2C#N)C1=O,"inconclusive [inhibitor, single point]"
3,CCN(CC)S(=O)(=O)c1cccc(NC(=O)COC(=O)c2cccs2)c1,inactive
4,COc1ccc(CCNC(=O)CS(=O)Cc2nc(-c3ccc(C)cc3)oc2C)cc1OC (centres undefined),"inconclusive [inhibitor, single point]"
5,CC(C)(C)C1CCc2c(sc(N)c2C(N)=O)C1 (centres undefined),"inconclusive [inhibitor, single point]"
6,COc1ccc(N2CCN(C(=O)c3nn(C)c4c3CS(=O)(=O)c3ccccc3-4)CC2)cc1,inactive
7,COc1cc(-c2cc(-c3nnco3)c3ccccc3n2)cc(OC)c1OC,"inconclusive [inhibitor, single point]"
8,CCOc1ccc(OCCC(=O)N2CCc3cc(OC)c(OC)cc3C2)cc1,"inconclusive [inhibitor, partial curve, poor fit]"
9,CCc1ccc(NC(=O)CCc2nnc3ccc(N4CCC5(CC4)OCCO5)nn23)cc1,"inconclusive [inhibitor, partial curve, poor fit]"
10,S=C(NN=C1CCN(Cc2ccccc2)CC1)NC1CCCCC1,"inconclusive [inhibitor, single point]"
11,CC1CCC(NC(=O)C2CCN(c3c4c(nc5ncnn35)CCC4)CC2)CC1 (centres undefined),"inconclusive [inhibitor, partial curve, poor fit]"
12,Cc1c(Cl)cccc1NC(=O)CSc1nc(=O)n(CCCN2CCOCC2)c2c1CCC2,"inconclusive [inhibitor, single point]"
13,CCN1C(=NCCc2c[nH]c3ccccc23)N[C@@H](c2ccccc2)[C@H](C(=O)OC)[C@H]1C,"inconclusive [inhibitor, partial curve, poor fit]"
14,COc1ccc(-c2nn3c(-c4ccccc4)nnc3s2)cc1,"inconclusive [inhibitor, partial curve, poor fit]"
15,CCOC(=O)c1nnc2cc(C)nn2c1C,inactive
16,CC(NC(=O)C(=O)N1CCCCC1)C(c1cccs1)N1CCN(c2ccccc2F)CC1 (centres undefined),"inconclusive [inhibitor, partial curve]"
17,O=C(CSCc1cccc(Br)c1)NC1CC1,inactive
18,Cc1ccc(C(CC(=O)NCCCN(C)C)c2ccc(OC(C)C)cc2)cc1 (centres undefined),"inconclusive [inhibitor, single point]"
19,CC(=O)Oc1ccc2c(C)cc(=O)oc2c1C(=O)c1ccccc1,inactive
20,CCCCC1=NN2CCS(=O)(=O)N=C2S1,inactive
21,COc1ccc(/C=C2\N=C(c3ccc(C)cc3)OC2=O)cc1,inactive
22,C=CCOc1c(Br)cc(CNc2ccc(NC(=O)C(C)C)c(OC)c2)cc1OC,"inconclusive [inhibitor, partial curve]"
